Test results: PMC12040169 (PLOS Biology, 2025)
Some of the results follow.

test system: T1, C. trachomatis L2/434/Bu expressing GFP (CTL2-GFP); parameters: species or system HeLa; C. trachomatis total inclusion area by high-content imaging, normalised to DMSO; details: total inclusion area; 28.5 h, 10 µM; inhibitor
T1 construct: L2/434/Bu GFP intracellular growth in HeLa cells
In short: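 Following bulk GFP and resorufin fluorescence reads, infected cells were fixed, Hoechst-stained and imaged on a high-content platform. Inclusion total area and number per well served as growth proxies; nuclei counts indicated host viability. MICs were derived as for the fluorescence assay.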

Structure (SMILES)	% of control remaining
Cn1ncc(N2CCN(C(=O)CCN3CCCCCC3=O)CC2)cc1=O [CBK306508]	61.0353
c1cncc(COc2nccnc2OC2CCN(CCOc3cccnc3)CC2)c1 [CBK083181]	103.766
COc1ccc(Cn2nc(NC(=O)c3cnc4ccccc4n3)c3ccccc32)cc1 [CBK048343]	99.3262
CC(Nc1n[nH]c(=O)[nH]c1=O)C(=O)N/N=C/c1ccccc1O (stereo not drawn) [CBK263526]	118.815
CC1(C(=O)O)COC(c2ccc([N+](=O)[O-])cc2)OC1 (stereo not drawn) [CBK286737]	138.814
Cc1ccccc1-n1ccn(C(=O)CCCOc2ccc(Cl)cc2)c1=O [CBK106573]	82.3485
O=C(c1c[nH]c(-c2ncn[nH]2)c1)c1ccc(Cl)cc1Cl [CBK008334]	91.5696
Cc1ccnc(NCn2nnc3ccccc32)c1 [CBK261116]	104.144
O=C(NCc1cccnc1)N1CCCCC1CO (stereo not drawn) [CBK156169]	86.3705
Cc1nnc(CN(C)C2CCN(CCc3cccs3)C2)n1C (stereo not drawn) [CBK305126]	53.6817
Cc1nnc2nc(-c3ccc(Cl)cc3Cl)[nH]n12 [CBK027731]	61.3562
CSc1nc(NN2C(=O)c3ccccc3C2=O)c2c3c(sc2n1)COC(C)(C)C3 [CBK268758]	88.7831
CCC(=O)N1CCC(c2cc(-c3cccc(F)c3)n(C)n2)CC1 [CBK282096]	68.0869
CN(C)c1cccc(Nc2cc(-c3ccc(CCC(=O)O)cc3)ncn2)c1 [CBK091010]	131.245
CC(CN1CCCCC1)OC(=O)C(c1ccccc1)c1ccccc1 (stereo not drawn) [CBK265237C]	84.6248
O=[N+]([O-])c1ccc(NCCCNS(=O)(=O)c2ccc(Cl)cc2)c(Cl)c1 [CBK262543]	95.5625
Cc1c(C(N)=O)sc2ncn(CC(=O)NCCc3ccccc3)c(=O)c12 [CBK268514]	136.001
CC1CCc2nc(NC(=O)c3ccccc3)sc2C1 (stereo not drawn) [CBK287298]	92.9596
COc1ccc(CCNC(=S)N2CCN(S(C)(=O)=O)CC2)cc1OC [CBK266917]	85.9125
CC1CCCN(c2nc3cc(C(=O)O)sc3[nH]2)C1 (stereo not drawn) [CBK287159]	114.681
Cn1nccc1C(=O)N1CCCC(c2cc3ncccc3[nH]2)C1 (stereo not drawn) [CBK283413]	98.0465
Cc1cc(-c2nc3ncccc3o2)ccc1NC(=O)c1ccc2c(c1)OCCO2 [CBK270104]	110.135
Cn1nc(-c2ccc(S(=O)(=O)NCCN3CCNC3=O)s2)cc1C(F)(F)F [CBK062610]	100.689
O=C(Nc1ccccc1C(=O)c1ccccc1)c1ccccn1 [CBK288150]	83.5524
O=C(NC(c1ccc2c(c1)CCO2)C1CC(O)C1)c1cccc(=O)[nH]1 (stereo not drawn) [CBK307463]	23.2927
Cc1nc2sc3c(c2c2nc(-c4ccncc4)nn12)CCCC3 [CBK288541]	78.3266

Structure (SMILES)	% of control remaining
c1csc(-c2nc3[nH]c4ccccc4n3n2)c1 [CBK264118]	100.105
O=C(CNC(=O)c1cccc(Cl)c1)N/N=C/C=C/c1ccccc1 [CBK261947]	68.3153
NC(=S)Nn1c(CCC(=O)O)ccc1-c1cccs1 [CBK265952]	103.983
Fc1ccc(OCCCN2CCC3(CC2)OCCc2c3[nH]c3ccccc23)cc1 [CBK107736]	89.7859
Cc1ccc(C(=O)Oc2cccc(NC(=O)c3ccco3)c2)cc1S(=O)(=O)N1CCOCC1 [CBK263211]	100.686
CCc1ccc(CNC(=O)Cn2nnnc2-c2ccc(CN3CCC(C)CC3)cn2)cc1 [CBK153930C]	79.7645
COc1ccc(C(=O)N2CCC3(CCN(C(=O)c4cccc(C#N)c4)C3)C2)cc1OC (stereo not drawn) [CBK131773]	92.5869
O=C(CSc1nnc(CCc2ccccc2)n1-c1ccc(Cl)cc1)c1ccccc1 [CBK266277]	104.787
CN(C)c1nc(N(C)C)n(Cc2ccc(F)cc2)n1 [CBK018839]	61.5415
O=C(NCCN1CCOCC1)c1cccc(S(=O)(=O)N2CCCC2)c1 [CBK267316]	118.227
CC(=O)NCCc1ccc(S(=O)(=O)N2CCN(Cc3ccccc3)CC2)cc1 [CBK268458]	93.1465
CC(C)(CO)CNc1nc(-c2ccsc2)cnc1N [CBK063499]	90.4946
CC(C)(C)NC(=O)Cn1cncc1-c1cnn(C2CCCCC2)c1 [CBK281701]	103.318
O=C(O)c1cc(NC/C=C/c2ccccc2)ccc1N1CCOCC1 [CBK269806]	68.0151
CS(=O)(=O)c1ncc(Cl)c(C(=O)N(Cc2ccccc2)Cc2ccco2)n1 [CBK269603]	0.3506
COc1ccc(OCC2CCN(C(=O)[C@@H]3C[C@@H]4C=C[C@H]3C4)CC2)cc1 [CBK282218]	72.1099
Nc1nc(N)c2nc(C3OCCO3)cnc2n1 [CBK027115]	60.551
COC(=O)[C@@H]1Cc2ncn(Cc3ccc(Cl)cc3)c2CN1C(=O)c1ccc(C#N)cc1 [CBK288984]	88.146
O=C(Nc1ccc2c(c1)C(=O)NC2=O)c1ccccc1 [CBK270384]	104.124
Cn1nc2c(cc1=O)CN(C(=O)c1cnc(C(C)(C)C)nc1)CC2 [CBK304293]	102.917
CC(=O)c1ccc2c(c1)[C@@H]1C=CC[C@@H]1[C@H](C(=O)O)N2 [CBK287093]	111.182
O=C(Cn1cnnn1)NCc1ccccc1 [CBK200255]	98.4899
CCCn1cnc2cc(NC(=O)Cn3cccc(C(=O)Nc4ccc(F)cc4)c3=O)ccc21 [CBK286060]	97.8165
COc1ccc(OC)c([C@@H]2CN(Cc3ccccc3)C[C@H]2NC(=O)c2ccco2)c1 [CBK286479]	89.541
Cc1cc(C(=O)N2Cc3ccccc3C2)n[nH]1 [CBK200328]	108.814
